Laboratory results: the supplement of paper PMC3334620
Over roughly 33,000 sequences, “E-score (-0.5 to 0.5)” has its median near -0.021; the highest 2% begin near 0.32. This is one part of the list.

biological target: T1, Zap1 (UniProt P47043); assay: PBM E-score (8-mer binding enrichment) (E-score (-0.5 to 0.5)); higher = stronger / more preferred TF binding; most listed sequences are background and not binding sites; conditions: protein concentration: 200 nM; construct: GST-full length
T1 sequence: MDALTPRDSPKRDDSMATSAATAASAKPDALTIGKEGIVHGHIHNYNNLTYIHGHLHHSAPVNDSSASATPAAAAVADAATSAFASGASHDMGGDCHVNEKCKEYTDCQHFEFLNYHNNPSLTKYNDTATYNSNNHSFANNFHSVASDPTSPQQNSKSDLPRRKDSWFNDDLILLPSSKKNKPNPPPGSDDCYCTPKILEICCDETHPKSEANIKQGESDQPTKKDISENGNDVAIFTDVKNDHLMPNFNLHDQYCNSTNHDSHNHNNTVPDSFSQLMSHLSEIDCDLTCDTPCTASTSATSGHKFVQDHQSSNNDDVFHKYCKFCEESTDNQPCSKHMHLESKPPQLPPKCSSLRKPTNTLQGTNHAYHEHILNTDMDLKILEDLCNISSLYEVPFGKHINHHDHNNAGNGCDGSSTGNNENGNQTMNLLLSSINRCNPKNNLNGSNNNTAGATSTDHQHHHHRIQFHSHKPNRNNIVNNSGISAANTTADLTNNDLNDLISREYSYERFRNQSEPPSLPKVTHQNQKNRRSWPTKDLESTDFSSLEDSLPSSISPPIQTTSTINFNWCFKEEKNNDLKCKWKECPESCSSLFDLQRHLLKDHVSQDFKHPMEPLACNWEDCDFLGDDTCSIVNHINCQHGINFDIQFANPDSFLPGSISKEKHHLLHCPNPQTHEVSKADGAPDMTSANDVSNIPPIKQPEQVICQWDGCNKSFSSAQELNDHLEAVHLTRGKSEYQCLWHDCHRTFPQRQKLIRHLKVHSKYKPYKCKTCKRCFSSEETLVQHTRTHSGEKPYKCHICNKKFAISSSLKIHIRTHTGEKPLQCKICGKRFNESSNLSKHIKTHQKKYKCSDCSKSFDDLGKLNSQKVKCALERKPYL
How it was run: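 Detection of bound protein used fluorescent anti-GST, with scans normalised by masliner. The proteins were GST-tagged yeast transcription factors applied at about 100-200 nM to universal all-10-mer Agilent arrays made double-stranded by primer extension. Each ungapped eight-base word, pooled with its reverse complement, was scored with an E-score from the Universal PBM Analysis Suite.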

Row | Sequence | PBM E-score
1 | ATAGAACG | -0.0313
2 | ATCATCGA | -0.0628
3 | AGTCGAGA | -0.164
4 | AAAGGCAG | -0.0969
5 | TAGTGGCA | -0.0925
6 | CAACGATC | -0.0691
7 | TCAACGGA | -0.152
8 | GGTCGGCA | 0.0289
9 | ACATCTTC | -0.098
10 | AAGAGGCT | -0.197
11 | TCCCTAGA | -0.0192
12 | GATCGCGC | 0.119
13 | CAACCTGA | 0.12
14 | CGTTCATA | -0.0193
15 | CATGCCGC | 0.0743
16 | CACGATAA | 0.29
17 | GAGTTTGA | 0.0522
18 | ACCGTTAA | 0.256
19 | ACGGAAAC | 0.00544
20 | CATATACG | -0.119
21 | ACCTGGCC | 0.062
22 | CGAGTGCC | -0.335
23 | ATTTATCG | 0.0424
24 | GGAGCTCC | 0.0478
25 | CCTGGGCG | -0.0228

Row | Sequence | PBM E-score
26 | AACAAGGA | 0.148
27 | GCATACTA | -0.0324
28 | CCTACCAG | -0.139
29 | CCTAGCTA | -0.0591
30 | CAGAAAGA | -0.0713
31 | CACATTTA | 0.0149
32 | CCGGGTCA | 0.316
33 | TGAAATCA | -0.00722
34 | ACCGATGA | 0.0223
35 | ATACAACC | 0.295
36 | ACTTGAAA | 0.0945
37 | CCCATTCA | -0.0794
38 | CACGTAGA | -0.0904
39 | AGGTTGTG | 0.349
40 | ATGGCCGC | 0.0134
41 | CGTTTGGC | -0.112
42 | GAACCCCA | 0.291
43 | CGACTAAC | 0.19
44 | AAAAGCAT | 0.109
45 | AATTCCGC | -0.0215
46 | ATGACCAC | 0.289
47 | GATTCAAC | -0.034
48 | GTGCGGAA | -0.102
49 | GGACCATA | 0.0827
50 | GGGGCTTA | -0.25

Row | Sequence | PBM E-score
51 | AGGGACAC | 0.253
52 | CAGTCTGC | -0.174
53 | ACTTTAGA | 0.0114
54 | ACGATAGC | -0.093
55 | AAACACCG | 0.15
56 | AGCGACGC | -0.162
57 | ACTTCACG | -0.208
58 | ACGCATTC | -0.126
59 | CACAGATA | -0.0532
60 | GACAGCGA | -0.275
61 | CTTAATTC | 0.165
62 | GGATCACC | 0.101
63 | GTACGACA | -0.0101
64 | GGTTATTA | 0.438
65 | ATCACCCA | 0.208
66 | ACCTATTG | 0.26
67 | GGAATCCC | -0.0713
68 | GCGGCTCC | -0.158
69 | AGCACCCG | 0.125
70 | CCGTGGCA | -0.00393
71 | ACGAATAT | 0.0884
72 | CGCTTAGC | -0.239
73 | AGGTAAAC | 0.139
74 | AGCTCTAT | -0.172
75 | CGTGCAAG | -0.129

Row | Sequence | PBM E-score
76 | CATATCCG | 0.033
77 | GAATCCAC | -0.00648
78 | CAACGTGC | -0.0974
79 | CTCCGTCC | -0.268
80 | AGCACCAT | -0.0576
81 | ATATAGCG | -0.0177
82 | AACGGCTC | -0.244
83 | AGCTGTCA | -0.0561
84 | CGCCTTAG | -0.293
85 | CTCCACTC | -0.232
86 | CAGAAACC | 0.22
87 | CGTTCGGA | -0.0861
88 | CACAGGGA | -0.163
89 | AACGCCCA | -0.0372
90 | CATTCACC | 0.0314
91 | CGTGCGTC | -0.0401
92 | CAAGGCTG | 0.071
93 | GGCAGTCA | -0.139
94 | CAGGAAAG | -0.21
95 | CCTAAAAG | 0.0509
96 | AACGTACA | 0.0402
97 | CGGCCGGC | -0.0891
98 | GGTAACTA | 0.313
99 | ACTGTGGC | -0.107
100 | ACGCGTGA | 0.152

Row | Sequence | PBM E-score
101 | GAGGAGCC | -0.212
102 | AAAGATGT | -0.0915
103 | CCTAGCCC | -0.151
104 | CGTTGATC | 0.0689
105 | CACAGGCA | -0.244
106 | AACGGAGA | -0.0507
107 | ATATCGCG | 0.126
108 | GAGTTCGC | -0.134
109 | CAATCTAA | -0.0414
110 | AGTGTATA | -0.149
111 | GCTAGTAA | 0.0477
112 | ACTCCAGG | 0.0527
113 | AGGTTCAC | 0.108
114 | CGCGTGAG | 0.0356
115 | AGCGAGCT | 0.0182
116 | GACCGGTA | 0.105
117 | AAACTACT | 0.0804
118 | GGGTCATA | 0.432
119 | AACACGGG | -0.0877
120 | ACAAATCC | 0.0813
121 | CCGTAAGC | 0.0194
122 | GTGGTCGA | -0.116
123 | AGACGCAC | -0.2
124 | AGATCCTA | -0.131
125 | CCTCGCCA | -0.241

Row | Sequence | PBM E-score
126 | GGCGGCTA | -0.0211
127 | TTCGAGAA | 0.0472
128 | CACCTTGA | 0.179
129 | ACCCACGC | 0.199
130 | CCACGTGG | -0.0253
131 | GACTGGCC | -0.254
132 | CCACGTGC | -0.0778
133 | AAGACTAC | -0.0648
134 | GCATCAAA | 0.169
135 | ATAGACTA | 0.0763
136 | CCCACTAC | 0.0184
137 | AAGCAAGT | -0.0851
138 | CATCTACA | -0.0824
139 | ATCCAAGC | -0.2
140 | CCGAGTCG | -0.139
141 | AACCTGCG | 0.14
142 | TAACGGCA | -0.0239
143 | ACTCATGC | -0.147
144 | ACTCTTAA | 0.0408
145 | ACACTCAC | -0.0309
146 | CGCTTTCC | -0.107
147 | CAGCCAAA | 0.149
148 | AAGTGGTG | -0.102
149 | ACAGGTCT | -0.121
150 | CATAAACA | 0.17

Row | Sequence | PBM E-score
151 | GTGGAAAC | 0.102
152 | GAGTACAC | -0.0741
153 | CTAGGTTA | 0.42
154 | CGTTTAGC | -0.122
155 | ATTAGCGG | -0.0245
156 | AAATTGAG | 0.0218
157 | AACCCTTG | 0.444
158 | ATCAGGCG | -0.157
159 | ATAACCGC | 0.459
160 | AATGCACA | 0.0382
161 | CATCGGAA | 0.0109
162 | AGCTAATA | -0.0477
163 | CGAATGCC | -0.267
164 | CCTCATCG | -0.0583
165 | ATGCCGCG | -0.0351
166 | CTTTAGTC | -0.161
167 | GAGGTAGA | -0.247
168 | GCCAGTAC | 0.0642
169 | CTAGGGGC | -0.223
170 | CTTAAACA | 0.128
171 | CTAGACTA | -0.0786
172 | GACTGGAC | -0.168
